The results in this text go back to PubChem BioAssay AID360 (National Center for Advancing Translational Sciences (NCATS), 2006).

Molecules are shown by their SMILES. Out of some 48,000 compounds screened, about 550 (1.1%) were called active. About 4% were inconclusive and are not listed. No stated cut-off is given here; in the data, active means potency below about 15 µM; inconclusive means mostly about 16 µM to 33 µM; inactive means weaker than that. This is one part of the list. A value given as a limit tells only on which side of the number the result lay.
Potency means the concentration at half of the fitted maximal effect.

The target in this assay is Lysosomal acid glucosylceramidase (Homo sapiens) (UniProt P04062). Kind of assay: Glucocerebrosidase.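 Further: the screen sought inhibitors.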 The note with it: purified enzyme, resorufin glucoside fluorescence (screen aimed at inhibitors), 20 min. In outline: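 Wild-type enzyme at 0.2 nM final in 50mM citric acid/KH2PO4, 10mM sodium taurocholate, 0.01% tween-20, pH 5.9, with resorufin beta-D-glucopyranoside at 30 uM final. Compounds titrated, 20 min at RT, red fluorescence read; AC50 from titration.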
UniProt P04062, sequence (P04062 whole entry, looked up): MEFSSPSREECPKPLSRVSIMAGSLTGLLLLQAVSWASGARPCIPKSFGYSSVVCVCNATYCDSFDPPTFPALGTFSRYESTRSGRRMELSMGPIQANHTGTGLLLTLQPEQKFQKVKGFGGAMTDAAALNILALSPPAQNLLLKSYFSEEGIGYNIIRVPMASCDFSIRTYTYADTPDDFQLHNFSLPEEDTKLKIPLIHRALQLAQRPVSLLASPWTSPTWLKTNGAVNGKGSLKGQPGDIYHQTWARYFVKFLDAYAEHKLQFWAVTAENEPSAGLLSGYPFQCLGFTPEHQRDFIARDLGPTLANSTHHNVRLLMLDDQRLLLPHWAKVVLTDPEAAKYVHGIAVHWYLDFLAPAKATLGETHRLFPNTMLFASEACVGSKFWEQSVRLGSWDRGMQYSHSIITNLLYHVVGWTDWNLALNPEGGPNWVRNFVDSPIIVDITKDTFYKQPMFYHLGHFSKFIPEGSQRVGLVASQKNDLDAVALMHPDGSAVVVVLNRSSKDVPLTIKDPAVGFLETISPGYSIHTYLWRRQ
Turning to `Cc1nn(C(=O)c2ccccc2)c2c1C(=O)CC(C)(C)C2`, the Potency is inactive: > 76.9 µM.

As to `Cc1ccc(C(=O)N(CN2CCCC2=O)c2ccc(F)cc2)cc1`, the Potency was inactive: > 76.9 µM.

Consider `CCOC(=O)C1CCN(C(=O)c2sc3nc(-c4ccc(F)cc4)cn3c2C)CC1`, for which the Potency entry was “inactive”.

Take `COCCNC(=O)c1ccc2c(=O)n(CCOC)c(=O)[nH]c2c1`: the Potency was inactive: > 76.9 µM.

Take `COc1ccc(N(CC(=O)Nc2ccc3c(c2)OCCO3)S(C)(=O)=O)c(OC)c1`: the Potency is inactive: > 76.9 µM.

Consider `C=CCOc1ccc(C2C(C(=O)c3ccco3)=C(O)C(=O)N2Cc2cccnc2)cc1` (stereo unspecified), for which the Potency was inactive: > 76.9 µM.

In the case of `Cn1c(C(=O)N2CCCc3ccccc32)cc2sccc21`, the Potency was inactive: > 76.9 µM.

As to `CC1=C(C(=O)Nc2ccccn2)C(c2cccnc2)n2nnnc2N1` (stereo unspecified), the Potency is inactive: > 76.9 µM.

For the molecule `CC(C)(C)N(Cc1cc2ccccc2[nH]c1=O)C(=O)C1CCCCC1`, the Potency was inactive: > 76.9 µM.

Regarding `COCCNC(=O)C(c1ccncc1)N(C(=O)Cn1nnc2ccccc21)c1ccc(OC)cc1` (stereo unspecified), the Potency was inactive: > 76.9 µM.

As to `CC(C)Cn1c(N)c(C(=O)CSc2ccc3c(c2)OCCO3)c(=O)n(C)c1=O`, the Potency was inactive: > 76.9 µM.

For the molecule `O=C(C1CCN(C2CC(=O)N(c3ccc(F)cc3)C2=O)CC1)N1CCOCC1` (stereo unspecified), the Potency was inactive: > 76.9 µM.

Turning to `Cc1ccc(OCC(=O)Nc2ccc(-c3nc4ncccc4o3)cc2)c(C)c1`, the Potency was inactive: > 76.9 µM.

Regarding `CCC(=O)Nc1ccc2c(c1)nc1n2CCSC1`, the Potency is inactive: > 76.9 µM.

As to `COc1ccc(NS(=O)(=O)c2ccc3c(c2)CCC(=O)N3)c(OC)c1`, the Potency is inactive: > 76.9 µM.

Take `O=C(CSc1nnnn1C1CCCC1)N1CCCc2ccccc21`: the Potency is inactive: > 76.9 µM.

In the case of `O=C(CCSCCC(=O)N1CCCC1)N1CCCC1`, the Potency was inactive: > 76.9 µM.

For `O=C(Nc1ccc(-c2nnc(-c3ccccc3)o2)cc1)C1CCCO1` (stereo unspecified), the Potency was inactive: > 76.9 µM.

In the case of `COc1ccc(C2C(C(=O)O)c3ccccc3C(=O)N2C)cc1Br` (stereo unspecified), the Potency is inactive: > 76.9 µM.

Turning to `COc1cccc(-c2nn(-c3ccccc3)cc2CO)c1`, the Potency was inactive: > 76.9 µM.

With `CCOc1cc(-c2cc(-c3ccc(N)cc3)nc(N)c2C#N)ccc1O`, the Potency was inactive: > 76.9 µM.

Consider `COc1cc(NC(=O)c2ccco2)c(OC)cc1NC(=O)CSc1nnc(-c2cccs2)n1C`, for which the Potency was inactive: > 76.9 µM.

On to `CCc1ccc2nc(NC(=O)c3cc(C)on3)sc2c1`, for which the Potency is inactive: > 76.9 µM.

With `COC(=O)c1ccccc1NC(=O)c1cc2n(n1)C(C(F)F)CC(C(F)F)N2` (stereo unspecified), the Potency was inactive: > 76.9 µM.

As to `Cc1cc(C(=O)NCc2ccccc2)no1`, the Potency was inactive: > 76.9 µM.

For `Cc1ccc(S(=O)(=O)Cn2nnnc2C(CC(C)C)N2CCN(c3ccc(F)cc3)CC2)cc1` (stereo unspecified), the Potency was inactive: > 76.9 µM.

In the case of `Cc1cnc(C(=O)OCC(=O)N2CCc3ccccc3C2)cn1`, the Potency was inactive: > 76.9 µM.

In the case of `O=S(=O)(NCC(c1cccnc1)N1CCN(c2ccc(F)cc2)CC1)c1cc(F)ccc1F` (stereo unspecified), the Potency was inactive: > 76.9 µM.

Consider `CCOC(=O)C1CCN(C(=O)Cc2c(C(=O)O)n(C)c3ccccc23)CC1`, for which the Potency is inactive: > 76.9 µM.

On to `Cc1ccccc1C(=O)NC1CCN(Cc2nnnn2CCc2ccccc2)CC1`, for which the Potency is inactive: > 76.9 µM.

On to `COC(=O)c1cccc(C(=O)Nc2cnc3ccccc3c2)n1`, for which the Potency is inactive: > 76.9 µM.

With `CCn1c(CNc2ccc(F)cc2)nnc1SCC(=O)N1CCCc2ccccc21`, the Potency was inactive: > 76.9 µM.

On to `CCCCNC(=O)C(NS(=O)(=O)c1cccc2nsnc12)c1ccccc1` (stereo unspecified), for which the Potency is inactive: > 76.9 µM.

On to `CCC(=O)Nc1ccc(-c2nn3c(C)nnc3s2)cc1`, for which the Potency is inactive: > 76.9 µM.

For the molecule `CCC(=O)N1CCN(c2ccccc2NC(=O)COc2cccc(C)c2)CC1`, the Potency was inactive: > 76.9 µM.

On to `CC(C)C(=O)Nc1ccc(C(=O)NCc2cccnc2)cc1`, for which the Potency result was “inactive”.

Consider `COc1ccc(CNC(=O)Cc2ccc(OC)c(S(=O)(=O)N3CCOCC3)c2)cc1`, for which the Potency is inactive: > 76.9 µM.

For `COc1ccccc1/C=c1\sc2nc(-c3ccncc3)nn2c1=O`, the Potency is inactive: > 76.9 µM.

`CCOc1ccc(OCC)c(NC(=O)CSCC(=O)O)c1`: the Potency is inactive: > 76.9 µM.

Take `COc1ccc(NC(=O)c2c(-c3ccccc3Cl)noc2C)c(OC)c1`: the Potency is inactive: > 76.9 µM.

Take `COc1ccc(-c2nc(SC)n(S(=O)(=O)c3ccccc3)n2)cc1`: the Potency was inactive: > 76.9 µM.

On to `Cc1cc(C)n2nc(SCC(=O)c3ccccc3)nc2n1`, for which the Potency is inactive: > 76.9 µM.

In the case of `CCn1c(CCNC(=O)c2ccc(Cl)cc2)nnc1SCC(=O)NC1CCCC1`, the Potency was inactive: > 76.9 µM.

In the case of `Cn1ncc2c(N3CCOCC3)ncnc21`, the Potency was inactive: > 76.9 µM.

Turning to `COc1ccc(-c2csc(N3CCC(C(N)=O)(N4CCCCC4)CC3)n2)cc1`, the Potency was inactive: > 76.9 µM.

In the case of `CCOC(=O)c1[nH]cc(-c2ccccc2)c1N1CCOCC1`, the Potency is inactive: > 76.9 µM.

`CCn1c(SCC(=O)N2CCCc3ccccc32)nc2cccnc21`: the Potency is inactive: > 76.9 µM.

As to `OCCN(Cc1ccccc1)Cc1cccc(C(F)(F)F)c1`, the Potency result was “inactive”.

With `CCC(C)(C)n1nnnc1C(c1cc2ccc(C)cc2[nH]c1=O)N(Cc1cccnc1)Cc1ccco1` (stereo unspecified), the Potency result was “inactive”.

Take `CC(=O)Nc1ccn(-c2ccccc2)n1`: the Potency is inactive: > 76.9 µM.

For the molecule `O=C(O)CCCCCNc1nc(=S)[nH]c2ccccc12`, the Potency is active: 7.73 µM.

For `Cc1nnc(N2CCN(Cc3ccccc3)CC2)[nH]c1=O`, the Potency is inactive: > 76.9 µM.

For the molecule `CCCn1nnc(NC(=O)c2ccc(Cl)cc2Cl)n1`, the Potency is inactive: > 76.9 µM.

On to `Cc1ccc(OCc2nnc(SCCN3CCOCC3)n2C)cc1`, for which the Potency is inactive: > 76.9 µM.

Regarding `Cc1cc(NC(=O)c2ccc3c(c2)C(=O)N(CCC(C)C)C3=O)no1`, the Potency was inactive: > 76.9 µM.

Consider `c1ccc2c(c1)oc1c(NCCCN3CCOCC3)ncnc12`, for which the Potency was inactive: > 76.9 µM.

Regarding `Cc1ccc(C)c(/C(O)=C2\C(=O)C(=O)N(CCCn3ccnc3)C2c2ccncc2)c1` (stereo unspecified), the Potency was inactive: > 76.9 µM.

As to `Cn1c(SCc2nc3ccccc3[nH]2)nnc1-c1ccccn1`, the Potency is inactive: > 76.9 µM.

Take `Cc1cccc(NC(=O)C2CCN(S(=O)(=O)c3cccs3)CC2)n1`: the Potency is inactive: > 76.9 µM.

As for `CCOc1ccc2[nH]c(C)c(CN3CCN(CC)CC3)c(=O)c2c1`, the Potency is inactive: > 76.9 µM.

For `O=C(C1CCC(C(=O)N2CCc3ccccc32)CC1)N1CCc2ccccc21` (stereo unspecified), the Potency was inactive: > 76.9 µM.

As for `COc1cc(C(=O)OCC(=O)Nc2cc(C)on2)ccc1OCc1ccccc1Cl`, the Potency was inactive: > 76.9 µM.

Regarding `CCOC(=O)c1c(C)[nH]c(C(=O)OCC(=O)N2CC(C)OC(C)C2)c1C` (stereo unspecified), the Potency is inactive: > 76.9 µM.

`Cc1ccc(C(=O)CSc2ccccn2)cc1`: the Potency is inactive: > 76.9 µM.

For the molecule `COc1ccc(-n2c(=O)c3c4c(sc3n3c(C)nnc23)COC(C(C)C)C4)cc1` (stereo unspecified), the Potency is inactive: > 76.9 µM.

With `CCCCn1c(SCc2c(C)noc2C)nc2cc(S(N)(=O)=O)ccc21`, the Potency was inactive: > 76.9 µM.

On to `OCCn1nc2c3ccccc3nc-2n(-c2ccccc2)c1=S`, for which the Potency was inactive: > 76.9 µM.

For `CCS(=O)(=O)c1ccc2oc(SCC(=O)c3ccco3)nc2c1`, the Potency is inactive: > 76.9 µM.

In the case of `O=C(NCCCNC1CCCCC1)c1ccc(/C=N/O)nc1`, the Potency was inactive: > 76.9 µM.

With `Cc1cccc(-n2nnc(C(=O)NCc3ccccc3)c2N)c1`, the Potency is inactive: > 76.9 µM.

For the molecule `COC(=O)c1ccccc1NC(=O)CSc1nnc(Cc2ccc(Cl)cc2)o1`, the Potency is inactive: > 76.9 µM.

For the molecule `COc1ccccc1-c1c(C)c(C)nc(N)c1C#N`, the Potency is inactive: > 76.9 µM.

With `CCSc1ccccc1C(=O)Nc1cccc(OC)c1`, the Potency was inactive: > 76.9 µM.

On to `Cc1cc(Cl)c(S(=O)(=O)N2CCSCC2)cc1OCC(N)=O`, for which the Potency was inactive: > 76.9 µM.

For `COc1ccc(CN(C(=O)c2ccco2)c2ccc(Br)cc2)cc1OC`, the Potency was inactive: > 76.9 µM.

Turning to `CCCCN1C(=O)C(O)(CC(=O)c2c(C)n[nH]c2C)c2cc(Br)ccc21` (stereo unspecified), the Potency is inactive: > 76.9 µM.

In the case of `CC(C)N(C(=O)Cn1cnc2c(cnn2-c2ccccc2Cl)c1=O)C(C)C`, the Potency is inactive: > 76.9 µM.

In the case of `CCSc1ccccc1C(=O)N1CCN(Cc2ccc3c(c2)OCO3)CC1`, the Potency was inactive: > 76.9 µM.

On to `Cc1ccc(C)c(N2CCN(C(=O)C3CCN(c4nc(C)cc(C)n4)CC3)CC2)c1`, for which the Potency is inactive: > 76.9 µM.

Take `O=C(CCS(=O)(=O)c1ccc(Br)cc1)N1CCN(Cc2ccccc2)CC1`: the Potency is inactive: > 76.9 µM.

As for `Nc1nc(CSc2nnc(-c3cccc(F)c3)n2-c2ccccc2)nc(N2CCOCC2)n1`, the Potency was inactive: > 76.9 µM.

Regarding `O=C(O)CSC1c2ccccc2C(=O)N1Cc1ccccc1` (stereo unspecified), the Potency is inactive: > 76.9 µM.

On to `COC(=O)c1cc(CSc2nc3ccc(C)cc3[nH]2)oc1C`, for which the Potency is inactive: > 76.9 µM.

In the case of `CSc1nsc(SCc2ccc(F)cc2)n1`, the Potency was inactive: > 76.9 µM.

For the molecule `CCCCCOc1ccc(C(=O)NC(CCC)C(=O)O)cc1` (stereo unspecified), the Potency was inactive: > 76.9 µM.

Take `CCOC(=O)CSc1nc2cc(C)ccc2cc1C#N`: the Potency was inactive: > 76.9 µM.

With `CCCCOc1ccc(OC(=O)c2cccnc2)cc1`, the Potency was inactive: > 76.9 µM.

On to `CS(=O)(=O)N1CCN(c2ccccc2NC(=O)Cc2ccc(Cl)cc2)CC1`, for which the Potency was inactive: > 76.9 µM.

As to `COc1ccc(CNc2nc3c(c(=O)n(Cc4ccc(Br)cc4)c(=O)n3C)n2C)cc1`, the Potency is inactive: > 76.9 µM.

Take `CCn1c(SCC(=O)Nc2nccs2)nnc1-c1ccccc1`: the Potency is inactive: > 76.9 µM.

Regarding `c1ccc(-n2nnnc2SCc2cn3ccccc3n2)cc1`, the Potency was inactive: > 76.9 µM.
